# Data as given in PubChem BioAssay AID1240 (Sanford-Burnham Center for Chemical Genomics, 2008).
# Among all 50,000 compounds or so, about 800 (1.6%) showed an effect of 50% or more. Some of the results follow.
# Target: Bcl-2-like protein 10 (Homo sapiens) (UniProt Q9HD36)
# Assay: Phenotype converters, Bcl-B/TR3 peptide binding displacement, primary biochemical FP (AID 1240);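 further: 0% = Bcl-B with tracer peptide and DMSO and 100% = tracer peptide lacking Bcl-B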
# Details: GST-Bcl-B / FITC-TR3 peptide fluorescence polarization; stronger effect = higher value; compound at 3.75 mg/L
# Sequence of UniProt Q9HD36 (Q9HD36 whole entry, looked up): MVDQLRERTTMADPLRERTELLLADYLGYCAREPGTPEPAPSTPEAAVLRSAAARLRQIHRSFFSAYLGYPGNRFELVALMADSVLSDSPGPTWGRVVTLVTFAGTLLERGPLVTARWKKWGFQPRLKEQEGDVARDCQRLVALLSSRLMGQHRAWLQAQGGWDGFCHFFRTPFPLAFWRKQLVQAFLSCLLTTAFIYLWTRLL
row,Compound,displacement
1,COc1cccc(/C=N/NC(=O)CSc2nnc(-c3ccccc3)n2-c2ccccc2)c1OC,1%
2,COc1ccc(/C=C\C(=O)c2c(-c3ccccc3)c3cc(C)ccc3[nH]c2=O)c(OC)c1,-16%
3,COc1ccc(CC(C)(C)NC(=O)c2ccccc2)cc1,10.1%
4,CCOc1cc(/C=C2/SC(=S)N(C)C2=O)ccc1OS(=O)(=O)c1ccc(C)cc1,-1.9%
5,Cc1ccc(N(CC(=O)NCCSc2ccccn2)S(C)(=O)=O)cc1,15%
6,CC1=CC(=O)C=C/C1=N\S(=O)(=O)c1ccc(C)cc1,17.2%
7,O=c1[nH]c(=O)n(-c2ccccc2F)c(O)c1C=Nc1ccc(Cl)cc1,-1.4%
8,CCc1ccc(OCCCCCN(CC)CC)cc1,5.7%
9,CCOC(=O)c1c(NC(=O)c2cc(OC)c(OC)c(OC)c2)sc(C(N)=O)c1C,-14.6%
10,COc1ccc(OCC(=O)Nc2c(C)n(C)n(-c3ccccc3)c2=O)cc1,7.3%
11,C=CCOc1c(Cl)cc(/C=C2\C(=O)NC(=O)N(c3cc(C)cc(C)c3)C2=O)cc1OC,-13.9%
12,O=C1CC(N2CCSCC2)C(=O)N1c1ccc(S(=O)(=O)N2CCOCC2)cc1 (stereo not drawn),37.9%
13,C=CCn1c(CCCN2C(=O)c3cccc4cccc(c34)C2=O)nnc1SCC(=O)OCC,0.6%
14,COc1ccccc1NC(=O)CC1S/C(=N\N=C(/C)c2cccc(NC(C)=O)c2)NC1=O (stereo not drawn),3.3%
15,O=c1[nH]c2ccc(Br)cc2c(-c2ccccc2)c1C1=NNC(c2ccc([N+](=O)[O-])cc2)C1 (stereo not drawn),-6.6%
16,O=C(c1ccccc1Br)N1N=C(c2ccccc2)CC1(O)C(F)(F)F (stereo not drawn),7.1%
17,O=C(Nc1ccc(Br)cc1C(=O)O)c1cccs1,4.2%
18,O=C1c2ccccc2C(=O)C12OC(c1ccc(Cl)cc1)C1(C(=O)c3ccccc3C1=O)C2c1ccc(F)cc1 (stereo not drawn),1.7%
19,C=CCC1(C#N)C(SC)=NC2=C(C(=O)CC(C)(C)C2)C1c1ccccc1 (stereo not drawn),-3.5%
20,COc1ccc(CC(=O)NCc2ccc(F)cc2)cc1OC,3.3%
21,O=C(Nc1ccc(Br)cc1)C1CCCN1S(=O)(=O)c1ccc(Cl)cc1 (stereo not drawn),19%
22,N/C(=N\OC(=O)COc1ccc2ccccc2c1)c1ccncc1,-2.5%
23,O=C1c2ccccc2C(=O)N1CSc1nnc2c(n1)[nH]c1ccccc12,-8.9%

row,Compound,displacement
1,CC1=NN(C(=O)c2cocc2C)C(O)(C(F)(F)F)C1 (stereo not drawn),10.3%
2,C=CCOc1ccc(/C=C2\C(=O)NC(=O)N(c3ccc(Br)cc3)C2=O)cc1OC,-13.2%
3,CCOC(=O)/C(C#N)=C\c1cccn1C,-6.7%
4,Cc1ccc(S(=O)(=O)N(CC(O)CN(C)C)c2cccc3ccccc23)cc1 (stereo not drawn),1.1%
5,CCN(c1ccccc1)S(=O)(=O)c1cc(Cl)ccc1Cl,-10.9%
6,CN1C(=O)C(=Cc2ccc(-c3cccc(Cl)c3Cl)o2)C(=O)N(C)C1=O,4.6%
7,Cc1ccccc1/C(=C1\OC(=O)c2ccccc21)[N+](=O)[O-],-6%
8,COc1ccc(/C=C2\SC(=S)N(C(C)C)C2=O)cc1,-3.9%
9,CCOc1cc([N+](=O)[O-])ccc1NC(C)=O,2.2%
10,CCOC(=O)C(=O)N1CCN(c2ccccc2OC)CC1,-1.6%
11,CCN=C(Nc1cc(Cl)cc(Cl)c1)SC1CC(=O)N(c2cccc(OC)c2)C1=O (stereo not drawn),14.3%
12,Cc1c(C(=O)Nc2ccc3oc(-c4ccccc4Br)nc3c2)cccc1[N+](=O)[O-],-9.9%
13,CCCOC(=O)c1ccc(NC(=O)c2ccc(C)c([N+](=O)[O-])c2)cc1,7.5%
14,Cc1cc(NC(=O)c2c(-c3c(Cl)cccc3Cl)noc2C)ccc1Br,-10.1%
15,c1ccc2cc(OCCCN3CCCC3)ccc2c1,6.9%
16,O=C1NC(=S)S/C1=C\c1ccc(-c2ccc(Cl)c(C(=O)O)c2)o1,-91.6%
17,CC1CN(C(=O)Cc2ccccc2[N+](=O)[O-])CC(C)O1 (stereo not drawn),-2.4%
18,CCOc1ccccc1/C=C1/C(=O)NN(c2ccc(I)cc2)C1=O,7.5%
19,O=C1C(=O)N(c2cccc(C(F)(F)F)c2)C(c2ccc([N+](=O)[O-])cc2)/C1=C(/O)c1ccccc1 (stereo not drawn),-2.3%
20,CCOC(=O)c1c(NC(=O)c2cc(Br)ccc2OC)sc2c1CCCC2,4.5%
21,Cc1ccc(/C(=N\S(=O)(=O)c2cccc([N+](=O)[O-])c2)Nc2ccccc2)cc1,13.2%
22,O=C(Nc1ccc(Cl)c(Cl)c1)c1ccc(Cl)cc1Cl,1.4%
23,NS(=O)(=O)c1cccc(NC(=O)COc2ccc([N+](=O)[O-])cc2)c1,-4.7%

row,Compound,displacement
1,CC(C)CNC(=O)CN(c1ccc(Cl)cc1)S(C)(=O)=O,15%
2,N#Cc1c(N)[nH]c(=S)c(C#N)c1-c1cccc([N+](=O)[O-])c1,-7.9%
3,CCC(C)OC(=O)C1=C(C)NC(=O)NC1c1cccc(Br)c1 (stereo not drawn),-1.4%
4,Nc1cc(-c2cccc(Br)c2)nn1Cc1ccccc1,-15.6%
5,COC(=O)c1ccc(NS(=O)(=O)c2ccc(C)cc2)cc1,-7.9%
6,O=C(NC(c1ccccc1)c1ccccc1)c1ccccc1C(F)(F)F,-6.4%
7,CCOC(=O)C1=C(C)N=c2s/c(=C\c3ccc(OC)cc3)c(=O)n2C1/C=C/c1ccccc1 (stereo not drawn),12%
8,COc1ccc(OC)c(N2C(=O)NC(=O)/C(=C/C=C/c3ccccc3)C2=O)c1,37.4%
9,CCc1ccc(NCCC(=O)c2ccc(Br)cc2)cc1,10.6%
10,CCOc1ccc(N2C(=O)NC(=O)/C(=C\c3ccccc3OC)C2=O)cc1,-0.4%
11,CCOC(=O)c1c(NC(=O)CN2CCOCC2)sc2c1CCC/C2=N\O,-6.6%
12,COc1ccc(/C=C/C(=O)c2ccc([N+](=O)[O-])cc2)s1,-4.2%
13,Cc1cccc(C)c1OCC(=O)NN=Cc1ccc(O)cc1,-6.4%
14,CCOc1ccc(/C=C/C(=O)c2ccc(Br)cc2)cc1,13.6%
15,CCN1C(=O)/C(=C/C2CC=CCC2)SC1=S (stereo not drawn),11.2%
16,COc1ccccc1/C=N\Nc1nc(-c2ccccc2)cc(-c2ccccc2)n1,4.5%
17,O=C(Nc1ccc(Cl)c(Cl)c1)Nc1nnc(/C=C/c2ccccc2)s1,30.5%
18,O=C1NC(=O)N(c2ccc(Cl)cc2)C(=O)/C1=C\C=C\c1ccco1,-27%
19,Nc1ccc2c(c1)C(=O)c1ccccc1C2=O,6.9%
20,O=C(CN1C(=O)/C(=C/c2ccccc2F)SC1=S)Nc1cccc(O)c1,18.2%
21,O=C(NCCSCc1ccccc1)c1ccccc1Cl,-1.3%
22,O=C1NN(c2ccc(Cl)c(Cl)c2)C(=O)/C1=C/c1cc([N+](=O)[O-])ccc1O,-1.6%
